Data from ChEMBL document CHEMBL5120772, “Discovery of ASP5878: Synthesis and structure-activity relationships of pyrimidine derivatives as pan-FGFRs inhibitors with improved metabolic stability and suppressed hERG channel inhibitory activity” (Bioorg Med Chem, 2022).

Assays:
[1] = Lipophilicity, logD of the compound in 1-octanol and phosphate buffer at pH 7.4 by LC-MS analysis; conditions: octanol/water
[2] = Permeability of the compound in aqueous buffer at pH 6.5 incubated for 2 hrs by PAMPA based HPLC analysis

Structure (SMILES)	logD [1]	Papp at 2 h [2] [×10⁻⁶ cm/s]
COc1cc(OC)c(F)c(COc2cnc(Nc3ccc(N4CCC(N5CCN(C)CC5)CC4)nc3)nc2)c1F	2.7	15.1
COc1cc(OC)c(F)c(COc2cnc(Nc3cnc(N4CCC(N5CCN(C)CC5)CC4)nc3)nc2)c1F	2.7	18.4
COc1cc(Nc2ncc(OCc3c(F)c(OC)cc(OC)c3F)cn2)cnc1N1CCC(N2CCN(C)CC2)CC1	2.8	14.4
COc1cc(OC)c(F)c(COc2cnc(Nc3ccc(N4CCC(N5CCN(C)CC5)CC4)c(F)c3)nc2)c1F	3.6	26.6
COc1cc(Nc2ncc(CCc3c(F)c(OC)cc(OC)c3F)cn2)ccc1N1CCN(C2CCN(C)CC2)CC1	2.5	3.5
